# Results published in PubChem BioAssay AID624417 (National Center for Advancing Translational Sciences (NCATS), 2012).
# Screen size: about 410,000 compounds; about 6,400 (1.6%) were called active. The inconclusive results got no clear call from the source; some entries with a clear call stand among them for comparison. The call rests on the fitted dose curve; in most records, active means well fitted inhibition curve with a large enough effect; inconclusive means small, poorly fitted or top-dose-only effect; inactive means no such curve, though single readings can be large or run the other way. No potency is given beside an inconclusive call; the fits are too rough.
# Biological target: Glucagon-like peptide 1 receptor (Homo sapiens) (UniProt P43220)
# Assay: qHTS of GLP-1 Receptor Inverse Agonists (Inhibition Mode); further: nearly all actives have a fitted effect of over 55% in size
# Conditions: HEK293 GLP-1R CRE-luciferase, luminescence, 24 h, GLP-1R form is constitutively active; activity change, negative = inhibition: at 38.3 µM (top of the series) unless noted
# Procedure, shortened: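 Using stably transfected HEK293 (constitutively active GLP-1R, cAMP-luciferase reporter), compounds were incubated 24 hr and luciferase measured by luminescence.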
# On the % scale 0 is the no-effect control and ±100 the full control effect; potency means the concentration at half of the fitted maximal effect; tags describe the fitted curve by direction and shape.
# UniProt P43220, sequence (P43220 whole entry, looked up): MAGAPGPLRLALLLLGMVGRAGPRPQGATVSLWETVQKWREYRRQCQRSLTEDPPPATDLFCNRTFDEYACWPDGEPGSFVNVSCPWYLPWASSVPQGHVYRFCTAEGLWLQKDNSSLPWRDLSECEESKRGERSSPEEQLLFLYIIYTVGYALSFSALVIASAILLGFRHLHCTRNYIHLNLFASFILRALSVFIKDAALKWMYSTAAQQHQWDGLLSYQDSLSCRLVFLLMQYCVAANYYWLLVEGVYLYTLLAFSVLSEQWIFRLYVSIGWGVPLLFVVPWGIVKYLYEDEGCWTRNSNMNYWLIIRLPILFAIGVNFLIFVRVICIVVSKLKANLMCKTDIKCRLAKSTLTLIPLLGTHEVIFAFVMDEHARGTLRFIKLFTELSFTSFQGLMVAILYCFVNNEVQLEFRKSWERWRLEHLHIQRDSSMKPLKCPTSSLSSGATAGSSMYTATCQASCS
Structure (SMILES),Potency,"activity change, negative = inhibition"
CCCCCCN1C=CC(=C2C(=O)c3ccccc3C2=O)C=C1,"inconclusive [inhibitor, full curve, poor fit]",
CCOC(=O)N1CCN(C(=O)c2ccccc2-c2ccccc2)CC1,"inconclusive [inhibitor, full curve]",
CCOc1ccc(CNC(=O)CCCc2cn(C)c3ccccc23)cc1,,inconclusive: -58.6% [inhibitor]
CC(Oc1ccc(Br)cc1)C(=O)NNC(=O)CCN1CCN(c2ccccc2)CC1 (centres undefined),"inconclusive [inhibitor, partial curve, poor fit]",
COc1ccc(Cl)cc1NC(=O)CCN1C(=O)c2ccccc2Sc2ncccc21,inactive,
CCCn1c(C(CO)Nc2nc(-c3cccc(Br)c3)cs2)nc2ccccc21 (centres undefined),"inconclusive [inhibitor, single point]",
Cc1c(C(=O)NCCNc2ncc(C(F)(F)F)cc2Cl)cccc1[N+](=O)[O-],"inconclusive [inhibitor, single point]",
CC(=O)N1CCc2cc(S(=O)(=O)NC(CC(C)C)C(=O)NCCc3ccccc3)ccc21 (centres undefined),inactive,
COc1ccc(-c2nnc(SCc3ccccc3F)o2)cc1,"inconclusive [inhibitor, single point]",
COC(=O)CCC(=O)OC1(C)C(=O)C=C2C=C(C3CC3)N(CCCCO)C=C2C1=O (centres undefined),inactive,
Cc1nc2c(sc3nc(N4CCOCC4)c4c(c32)CC(C)(C)OC4)c(-c2ccc(Cl)cc2)c1C(=O)O,active: 4.47 µM,
Cc1ccc(CN2CCN(C3CCN(C(=O)c4ccc(C)cc4)CC3)C(=O)C2=O)cc1,inactive,
Cn1c(/C(C#N)=C/C2CC=CCC2)nc2ccccc21 (centres undefined),"inconclusive [inhibitor, single point]",
CCN(CC)c1ccc(/C=N/NC(=O)c2cnccn2)cc1,"inconclusive [inhibitor, partial curve]",
O=C(CSc1c(Cl)cccc1Cl)NC1CCCc2ccccc21 (centres undefined),"inconclusive [inhibitor, full curve, poor fit]",
COc1ccc(OCc2cc(C(=O)NCCN3CCCC(O)C3)no2)c(Cl)c1 (centres undefined),"inconclusive [inhibitor, full curve, poor fit]",
S=C(NCc1ccco1)Nc1cccc(Cl)c1Cl,"inconclusive [inhibitor, partial curve, poor fit]",
Cc1ccc(O)c(C2=NOC(O)(C(F)(F)C(F)F)C2)c1 (centres undefined),"inconclusive [inhibitor, single point]",
CC(C)OC(=O)CSc1nc(N)c(C#N)c(-c2ccco2)c1C#N,inactive,
